Reference: PubChem BioAssay AID1508623 (National Center for Advancing Translational Sciences (NCATS), 2021)
The campaign covered roughly 48,000 compounds. About 450 (0.94%) were called active. Not shown: some 19% with an inconclusive outcome. The call rests on the fitted dose curve; in most records, active means well fitted inhibition curve with a large enough effect; inconclusive means small, poorly fitted or top-dose-only effect; inactive means no such curve, though single readings can be large or run the other way. The list shows a part of the results.

test: Primary qHTS for Identification of Small Molecule Inhibitors of Huntingtin Promoter Activity; conditions: HEK293 HTT promoter firefly luciferase reporter (activity 0% = vehicle and -100% = no light), 24 h; series mostly up to 57.5 µM; activity change, negative = inhibition: at the top concentration; further: nearly all actives have a fitted effect of over 50% in size
Method in brief: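 HEK293 luciferase promoter-reporter cells (2,500/well) plated 24 h, then compounds added at up to 57.5 uM final for 24 h at 37 °C. Firefly luminescence by Dual-Glo, normalized to vehicle (0%) and zero RLU (-100%).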

Activity change, negative = inhibition, inactive:
COc1ccc(CCNC(=O)Cn2c(=O)nc(-c3ccccc3F)c3cc(Cl)ccc32)cc1OC 19.8%
Cc1ccc2[nH]c(CSc3nnc(C)s3)cc(=O)c2c1 1.18%
CCOc1ccccc1NC(=O)C1CCN(S(=O)(=O)c2cccc3nonc23)CC1 8.92%
O=C(Nc1cc(-c2ccc(F)c(F)c2)no1)c1ccccc1F 43.6%
N#CC(c1ccc(Cl)cc1)c1c(Cl)cc(-n2ncc(=O)[nH]c2=O)cc1Cl (stereo unspecified) -2.27%
CC1=C(C(=O)Nc2ccc(F)cc2)C(c2ccc(N(C)C)cc2)NC(=O)N1 (stereo unspecified) -11.2%
CCC1CN(C(=O)C2CCN(S(=O)(=O)c3c(C)noc3/C=C/c3ccc(C)cc3)CC2)c2cc(C)ccc2O1 (stereo unspecified) -24.5%
COCCNC(=O)CCn1c(=O)[nH]c2cc(OC)c(OC)cc2c1=O 1.43%
CC1CCCN(c2ncnc3c2nnn3C)C1 (stereo unspecified) 6.26%
O=C(Nc1ccc(C(F)(F)F)cc1)C1(c2cccs2)CCOCC1 -12.2%
CCC1CN(C(=O)N2CCC(C(=O)NCc3ccccc3F)CC2)c2ccccc2O1 (stereo unspecified) -19.6%
CCOc1ccc(NC(=O)c2cc(S(=O)(=O)N3CCC(C)CC3)cn2C)cc1 -4.42%
COc1ccc(CNC(=O)Cc2ccc(NC(=O)N3CCCCc4ccccc43)cc2)cc1 -23.3%
Cc1ccc(NC(=O)c2c(C)oc3ncnc(N4CCCCC4)c23)c(C)c1 -26%
CC(Oc1ccccc1F)C(=O)NCC1(N2CCOCC2)CCCCC1 (stereo unspecified) -22.9%
Cc1cc(C)cc(NC(=O)c2cc(S(=O)(=O)N3CCCCC3)c[nH]2)c1 -1.53%
CC(C)(C)C(=O)OCOP(=O)(COCCn1cnc2c(N)ncnc21)OCOC(=O)C(C)(C)C
CCc1ccc(NC(=O)c2sc3nc(C)cc(C)c3c2NC(=O)c2ccccc2)cc1 20.7%
Cc1ccc(-c2nn3c(C)nnc3c3ccccc23)cc1S(=O)(=O)NC(C)(C)CO 33.7%
Cc1ccccc1NC(=O)C1CCN(S(=O)(=O)c2cccc3nonc23)CC1 0.563%
CN(C)S(=O)(=O)c1ccc2c(c1)N(CC(=O)N1CCC(C(N)=O)CC1)CCS2 -5.07%
COc1ccc(/C=C/C(=O)Nc2cccc(F)c2)cc1 5.96%
Cc1ccc(C)c(NC(=O)Cn2cc(S(=O)(=O)c3ccc(F)cc3)c(=O)c3cc(F)ccc32)c1 -15.1%
Cc1cccc(C)c1NC(=O)Cn1c(=O)n(CCC(=O)NCc2ccc3c(c2)OCO3)c(=O)c2sccc21 -12.8%
COc1ccc(-c2cc(C(F)(F)F)n3nc(C(=O)Nc4ccc(Cl)cc4C(F)(F)F)cc3n2)cc1OC -11.4%
COc1ccc(C(=O)N2CCN(CCc3ccccn3)CC2)cc1 -16%
Cc1oc(-c2ccccc2)nc1Cn1c(=O)cc(-c2ccccc2)c2c(C)nn(C)c21 -9.7%
Cc1ccc(NC(=O)c2cnc(SCC(=O)N3CCCc4ccccc43)n(C)c2=O)cc1C -14.8%
CC(C)CN(CC(C)C)c1nnc(NC(=O)Nc2cccc(C(F)(F)F)c2)s1 -21.9%
COc1ccc(OCC(=O)Nc2ccc3c(c2)N(C)C(=O)c2ccccc2S3)cc1 -26.3%
COc1ccc(-c2cc(C(=O)Nc3c(C(=O)c4ccc(C)c(F)c4)oc4ccccc34)no2)cc1 20%
Cc1ccc2nc(Cl)c3cc(C(=O)N4CCCC(C)C4)sc3c2c1 (stereo unspecified) -21.3%
CCn1c(=O)c2cc(C(=O)NCCc3ccc(OC)c(OC)c3)sc2c2ccccc21 -12.3%
COC(=O)Cn1c(SCCOc2ccccc2Cl)nc2ccccc21 1.37%
O=C(CCS(=O)(=O)c1nc(-c2ccc3c(c2)OCO3)cc(C(F)(F)F)n1)Nc1ccccc1C(F)(F)F -19.2%
CCOC(=O)c1cc(-c2ccc(C)cc2)n(CC(=O)Nc2cc(C)ccc2C)c1C -6.9%
COc1ccc(-c2cc(C(F)(F)F)n3nc(C(=O)Nc4cccc(Cl)c4Cl)cc3n2)cc1OC -20.3%
CC1=C(C(=O)Nc2ccc(C)cc2C)C(c2cc(Br)ccc2F)n2ncc(C(=O)Nc3ccc(C)cc3)c2N1 (stereo unspecified) -25.8%
CCc1ccccc1NC(=O)c1cc(S(=O)(=O)N2CCC(C)CC2)cn1C -20.2%
CCOc1ccc(NC(=O)Cn2cc(C(=O)c3ccccc3)c(=O)c3cc(OC)ccc32)cc1 -12%
COC(=O)c1cc(NC(=O)CCc2c(C)nc3nc(C)nn3c2C)cc(C(=O)OC)c1 -4.75%
CCCCn1c(SCc2ccccc2C#N)nc2c(sc3ccccc32)c1=O -19.2%
CC1=C(C(=O)Nc2ccccc2C)C(c2ccc[nH]2)n2ncnc2N1 (stereo unspecified) 7.15%
Cc1ccc(-n2ncc3c(=O)n(Cc4cccc(C(F)(F)F)c4)cnc32)cc1C -15.1%
CCOC(=O)Cn1c(=O)cc(C)c2c(C)nn(-c3cccc(F)c3)c21 -4.08%
Cc1ccc2c(c1)-c1onc(C(=O)N(C)c3ccc(F)cc3)c1CO2 23.4%
Cc1cccc(CC(=O)Nc2cccc(-c3cn4cccnc4n3)c2)c1 16.2%
O=C(NCc1ccc2c(c1)CCN2C(=O)c1ccncc1)c1cccc(F)c1 -4.08%
CCOC(=O)c1[nH]c(C)c(C(=O)NCc2ccccc2Cl)c1C -17.6%
O=C(CCc1nnc2n(Cc3ccccc3Cl)c(=O)c3ccccc3n12)Nc1ccccc1 -3.68%
CCOc1ccc(C2c3[nH]c4ccccc4c3CCN2C(=O)CCC2CCCC2)cc1 (stereo unspecified) -25.6%
CCOC(=O)C1CCCN(S(=O)(=O)c2cc(Br)cc3c2N(C(=O)CC)CC3)C1 (stereo unspecified) 9.44%
Cc1ccc(COC(=O)c2ccc(-c3nnn(Cc4ccc(C)cc4)n3)cc2)cc1 0.715%
Cc1ccn2c(=O)c(NC(=O)c3cccc([N+](=O)[O-])c3C)c(C)nc2c1 -26.9%
CCN(CCCNC(=O)CN1N=C(c2ccc(C)cc2)CCC1=O)c1ccccc1 -28%
O=c1cc(-c2ccccc2)nc(SCc2nc(-c3cccc(C(F)(F)F)c3)no2)[nH]1 -1.43%
CC(=O)C(Sc1nc(-c2ccccc2Cl)nc2c1c(=O)n(C)c(=O)n2C)C(=O)N(C)C (stereo unspecified) -9.98%
CN1CCC(=C2c3ccccc3CC(=O)c3sccc32)CC1
Cc1ccc(CNC(=O)CCCn2nc(C)n3c(cc4sccc43)c2=O)cc1 -0.103%
COc1cccc(C(=O)c2cn(CC(=O)Nc3ccc4c(c3)OCCO4)c3nc(C)ccc3c2=O)c1 -14.3%
Cc1ccc(NC(=O)NCc2c(-n3cccc3)sc3c2CCCC3)c(Cl)c1 -21.1%
